What all share (test): glycan array binding signal (z-score within array); higher = stronger binding
Common to all, as to conditions: glycan notation: IUPAC condensed, linker removed

One test deals with Neu5Ac(a2-6)Gal(b1-4)Glc. The essentials:
(§1)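 Glycan array data were curated from 3228 arrays in the Consortium for Functional Glycomics database and kept only where the protein sequence was available. Glycan names were converted to IUPAC-condensed notation, and columns mapping to the same glycan were averaged. The binding signal is a within-array Z-score, averaged across arrays of the same protein sequence at different concentrations or buffers and across linkers. Negative Z-scores can be read as non-binding.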

The target in test [1] is Neu5Ac(a2-6)Gal(b1-4)GlcNAc. The essentials:
as §1

The target in test [2] is Neu5Ac(a2-6)Gal(b1-4)GlcNAc(b1-2)Man. The essentials: as §1
Test [3] deals with Neu5Ac(a2-6)Gal(b1-4)GlcNAc(b1-2)Man(a1-3)Man(b1-4)GlcNAc(b1-4)GlcNAc. The essentials:
as §1

Test [4] addresses Neu5Ac(a2-6)Gal(b1-4)GlcNAc(b1-2)Man(a1-3)[Gal(b1-4)GlcNAc(b1-2)Man(a1-6)]Man(b1-4)GlcNAc(b1-4)GlcNAc. The essentials: as §1
The target in test [5] is Neu5Ac(a2-6)Gal(b1-4)GlcNAc(b1-2)Man(a1-3)[GlcNAc(b1-2)Man(a1-6)]Man(b1-4)GlcNAc(b1-4)GlcNAc. In outline:
as §1

The target in test [6] is Neu5Ac(a2-6)Gal(b1-4)GlcNAc(b1-2)Man(a1-3)[GlcNAc(b1-4)][Neu5Ac(a2-6)Gal(b1-4)GlcNAc(b1-2)Man(a1-6)]Man(b1-4)GlcNAc(b1-4)GlcNAc. In outline: as §1
The target in test [7] is Neu5Ac(a2-6)Gal(b1-4)GlcNAc(b1-2)Man(a1-3)[Man(a1-6)]Man(b1-4)GlcNAc(b1-4)GlcNAc. The essentials: as §1
Test [8] addresses Neu5Ac(a2-6)Gal(b1-4)GlcNAc(b1-2)Man(a1-3)[Neu5Ac(a2-3)Gal(b1-4)GlcNAc(b1-2)Man(a1-6)]Man(b1-4)GlcNAc(b1-4)GlcNAc. The essentials: as §1
The target in test [9] is Neu5Ac(a2-6)Gal(b1-4)GlcNAc(b1-2)Man(a1-3)[Neu5Ac(a2-6)Gal(b1-4)GlcNAc(b1-2)Man(a1-6)]Man(b1-4)GlcNAc(b1-4)GlcNAc. In outline:
as §1

Test [10] has as its target Neu5Ac(a2-6)Gal(b1-4)GlcNAc(b1-2)Man(a1-3)[Neu5Ac(a2-6)Gal(b1-4)GlcNAc(b1-2)Man(a1-6)]Man(b1-4)GlcNAc(b1-4)[Fuc(a1-6)]GlcNAc. In outline: as §1
Test [11] concerns the target Neu5Ac(a2-6)Gal(b1-4)GlcNAc(b1-2)Man(a1-6)Man(b1-4)GlcNAc(b1-4)GlcNAc. In outline: as §1
The target of test [12] is Neu5Ac(a2-6)Gal(b1-4)GlcNAc(b1-2)Man(a1-6)[Gal(b1-4)GlcNAc(b1-2)Man(a1-3)]Man(b1-4)GlcNAc(b1-4)GlcNAc. The essentials: as §1
The target of test [13] is Neu5Ac(a2-6)Gal(b1-4)GlcNAc(b1-2)Man(a1-6)[GlcNAc(b1-2)Man(a1-3)]Man(b1-4)GlcNAc(b1-4)GlcNAc. The essentials: as §1
In test [14] the target is Neu5Ac(a2-6)Gal(b1-4)GlcNAc(b1-2)Man(a1-6)[Man(a1-3)]Man(b1-4)GlcNAc(b1-4)GlcNAc. In outline:
as §1

In test [15] the target is Neu5Ac(a2-6)Gal(b1-4)GlcNAc(b1-2)[Neu5Ac(a2-6)Gal(b1-4)GlcNAc(b1-4)]Man(a1-3)[GlcNAc(b1-4)][Neu5Ac(a2-6)Gal(b1-4)GlcNAc(b1-2)[Neu5Ac(a2-6)Gal(b1-4)GlcNAc(b1-6)]Man(a1-6)]Man(b1-4)GlcNAc(b1-4)GlcNAc. The essentials:
as §1

The target in test [16] is Neu5Ac(a2-6)Gal(b1-4)GlcNAc(b1-2)[Neu5Ac(a2-6)Gal(b1-4)GlcNAc(b1-4)]Man(a1-3)[GlcNAc(b1-4)][Neu5Ac(a2-6)Gal(b1-4)GlcNAc(b1-4)Man(a1-6)]Man(b1-4)GlcNAc(b1-4)GlcNAc. The essentials: as §1
The target in test [17] is Neu5Ac(a2-6)Gal(b1-4)GlcNAc(b1-2)[Neu5Ac(a2-6)Gal(b1-4)GlcNAc(b1-6)]Man(a1-6)[Neu5Ac(a2-6)Gal(b1-4)GlcNAc(b1-2)Man(a1-3)][GlcNAc(b1-4)]Man(b1-4)GlcNAc(b1-4)GlcNAc. The essentials: as §1
Test [18] has as its target Neu5Ac(a2-6)Gal(b1-4)GlcNAc(b1-3)Gal(b1-3)GlcNAc. The essentials:
as §1

Test [19] has as its target Neu5Ac(a2-6)Gal(b1-4)GlcNAc(b1-3)Gal(b1-4)GlcNAc. The essentials:
as §1

In test [20] the target is Neu5Ac(a2-6)Gal(b1-4)GlcNAc(b1-3)Gal(b1-4)GlcNAc(b1-2)Man(a1-3)[Neu5Ac(a2-6)Gal(b1-4)GlcNAc(b1-3)Gal(b1-4)GlcNAc(b1-2)Man(a1-6)]GalNAc. The essentials: as §1
Test [21] addresses Neu5Ac(a2-6)Gal(b1-4)GlcNAc(b1-3)Gal(b1-4)GlcNAc(b1-3)Gal(b1-4)GlcNAc. In outline:
as §1

Test [22] addresses Neu5Ac(a2-6)Gal(b1-4)GlcNAc(b1-3)Gal(b1-4)GlcNAc(b1-3)Gal(b1-4)GlcNAc(b1-2)Man(a1-3)[Neu5Ac(a2-6)Gal(b1-4)GlcNAc(b1-3)Gal(b1-4)GlcNAc(b1-3)Gal(b1-4)GlcNAc(b1-2)Man(a1-6)]GalNAc. The essentials: as §1

This is one part of the list.

B1: PX14379A-bvu-539-28-539 (Bacteroides vulgatus) (protein)
chain: EPYSEIIEEDYVPTEADEIALLATTYSQLRFVMDWYGLFDLQEESGDVIVTPTRPNGWDDGGTYKQMHKHTWDNQQGQPQSIWDYCYKGIANANKILKRADEGFFTEESKPKVVAEVKGVRALWYSILCDTHGNIPIQTSFSEEVPVQSTRKQVFDFIINELKEVMPNLPTEVNKSTYGRLTQWGAKCLMARMYLNAGVYTGTPMWNECLEQCNDIINSGLFSLETNYTDIFKTENSGCVETIFAIPYDEVYNEGDNNGPVFGAHMKFLSSNSRKVFNMQTTPWGGSAANPQFINSYDPDDMRLKYTWLQGDQYSPDGVLITTFPNKLPSIYKTDTDDGYRVGKYEIKVGAKSLLSNDFPYFRYTEVLLMKAECLLRLGQNETEAAHIVSQIRERAFRESAHPEKATVDAAWLKGDTHINYGTLDEKGQIDDAGNTEVVELGGLYDEWGWEFAAEARRRTDMIRFGTYQKKSWFNHTPTANDLNGNSILFPIHLDHLNTNPNLQQNPGYAGK
For the molecule B1, the “glycan array binding signal (z-score)” value is -0.294 with Neu5Ac(a2-6)Gal(b1-4)Glc; 0.011 in test [1]; -0.559 in test [2]; -0.074 in [3]; 0.14 in test [4]; -0.366 in [5]. The “glycan array binding signal (z-score)” value in test [6] was -0.434; in test [7] it was -0.202; in test [8], -0.144; in test [9], -0.123; in test [10] it was -0.29; in test [11], -0.483. For the same molecule, the “glycan array binding signal (z-score)” value was -0.47 in test [12]; -0.431 in test [13]; -0.299 in test [14]; -0.137 in test [15]; -0.196 in test [16]; -0.47 in test [17]. The “glycan array binding signal (z-score)” value is -0.087 in [18]; -0.123 in [19]; -0.103 in test [20]; -0.533 in test [21]; 0.07 in test [22].
